# Measured values from PubChem BioAssay AID1347073 (National Center for Advancing Translational Sciences (NCATS), 2019).
# Among all 45,000 compounds or so, about 200 (0.44%) were called active. Another 7% or so got no clear call; they are omitted. The call rests on the fitted dose curve; in most records, active means well fitted activation curve with a large enough effect; inconclusive means small, poorly fitted or top-dose-only effect; inactive means no such curve, though single readings can be large or run the other way. Some of the results follow.
# Test: qHTS of TDP-43 Inhibitors: NCGC Sytravon Library Screen; further: nearly all actives have a fitted effect of over 55% in size; on growth rescue (activation): 0% is about no effect
# Details: yeast TDP-43 toxicity rescue, BacTiter-Glo growth, 24 h; series mostly up to 46.1 µM; growth rescue (activation): at the top concentration
# How it was run: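 TDP-43-expressing yeast, pregrown in raffinose, seeded at OD600 0.02 in galactose medium with compound for 24 hr at 30 deg C. Growth read by BacTiter-Glo luminescence, so rescue of toxicity appears as activation.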
# Potency means the concentration at half of the fitted maximal effect.
Structure (SMILES),growth rescue (activation),Potency
COC(CNC(=O)c1ccc(CS(=O)(=O)c2ccccc2)o1)OC,inactive: -1.93%,–
CCOP(=O)(OCC)C(NC(=O)Nc1ccc(Cl)c(Cl)c1)C(N)=O (stereo not given),inactive: -1.36%,–
Cc1ccc2cc(CN(CC3CCCO3)C(=O)c3cccs3)c(=O)[nH]c2c1 (stereo not given),inactive: 11.8%,–
Cc1cc(C)nc(-n2ncc(C#N)c2N)n1,inactive: 12.2%,–
COc1ccc(-n2c(O)c(C=NC3CC3)c(=O)[nH]c2=O)cc1,inactive: -17.5%,–
Fc1ccc(F)c(NC2=NCCCCC2)c1,inactive: 0.48%,–
CC1CC(C)CN(C(=O)CNS(=O)(=O)c2cccs2)C1 (stereo not given),inactive: -20.2%,–
CN(C(=O)Cn1nc(C(=O)O)c2ccccc2c1=O)C1CCCCC1,inactive: 14.6%,–
Cc1ccc2cc(CN(CCc3ccccc3)C(=S)NCCCN(C)C)c(=O)[nH]c2c1,inactive: -15.9%,–
O=C(CSc1nc(Nc2ccccc2)nc(N2CCOCC2)n1)N1CCc2ccccc21,inactive: -11.4%,–
O=C(CN1CCOCC1)Nc1ccccc1Sc1ccccc1,inactive: 9.36%,–
COc1ccc(CNC(=O)c2ccc3nc(C)c(N(C)Cc4ccc(NC(C)=O)cc4)n3c2)cc1,inactive: 3.41%,–
O=C(Nc1cccc(C(=O)O)c1)/C(=C\c1ccc2c(c1)OCO2)NC(=O)c1ccc(Br)cc1,inactive: -14.4%,–
CCCCN(C)C(=O)c1nc2ccccn2c1CNC1CCC1,inactive: 7.57%,–
Nc1ccnn1Cc1ccncc1,inactive: 5.27%,–
COc1ccc(N(CC(=O)NCc2ccccc2)C(=O)CCC(=O)Nc2cc(C)ccn2)c(OC)c1,inactive: -4.44%,–
Cc1ccc(C)c(C2C(C#N)=C(N)Oc3cc(C)oc(=O)c32)c1 (stereo not given),inactive: 10.6%,–
CN(C)C(/C=C/Nc1cccc(Br)c1)=C(C#N)C#N,inactive: 11.8%,–
Cc1ccc(NC(=O)CN(C)C(=O)Cn2c(=O)oc3ccccc32)cc1,inactive: -9.69%,–
Cc1ccc(-c2cc(C(=O)Nc3c(C)n(C)n(-c4ccccc4)c3=O)c3ccccc3n2)cc1,inactive: 26.2%,–
COc1cc(C(=O)O)cc(NC(=O)c2cccs2)c1OC,inactive: -1.5%,–
NC(c1cccc(F)c1)c1nc(-c2ccc(Cl)cc2)cs1 (stereo not given),inactive: -9.03%,–
Cc1cccc(C)c1NC(=O)COC(=O)CSc1nnc(N)s1,inactive: -9.14%,–
Cc1ccc2oc(C(=O)N3CCN(Cc4ncccc4C)CC3)c(C)c2c1,inactive: 9.47%,–
O=S(=O)(c1cccc2nsnc12)N1CCN(Cc2ccccc2)CC1,inactive: 14.8%,–
O=C(Nc1ccccc1)/C(=C/c1ccc(F)cc1)NC(=O)c1ccco1,inactive: -1.85%,–
Cc1onc(-c2ccccc2)c1C(=O)NCC(=O)Nc1cc(Cl)ccc1Cl,inactive: 32.6%,–
COc1ccc(-c2coc3c(C(=O)NCc4cccs4)cccc23)c(C)c1,inactive: 12.2%,–

Structure (SMILES),growth rescue (activation),Potency
CC1(C(=O)NCCC(F)(F)F)Cc2c(-c3cccc(C(N)=O)c3)ccnc2O1 (stereo not given),inactive: -16.1%,–
O=C(CN(Cc1ccccc1)C(=O)CCC(=O)Nc1nccs1)NCc1ccc(F)cc1,inactive: -10.9%,–
O=C(CCc1ccccc1)NCC1(c2ccccc2)CCCC1,inactive: 11.2%,–
CCN1CCN(CC(=O)Nc2cc(S(=O)(=O)N(CC)c3ccccc3)ccc2Cl)CC1,inactive: -17.7%,–
O=C1NC(=O)C2(CCCCCCCCCCC2)N1,inactive: 10.1%,–
CCCn1c(SCC(=O)NC2CC2)nnc1-c1ccccn1,inactive: -4.65%,–
CCOc1ccc(OCCCC(=O)N2CCN(S(=O)(=O)c3ccccc3C#N)CC2)cc1,inactive: 28.7%,–
CC1Cc2ccccc2N1S(=O)(=O)c1cccc(C(=O)OCC(=O)NCc2ccco2)c1 (stereo not given),inactive: 38.1%,–
O=C(Nc1ccc(S(=O)(=O)Nc2ncccn2)cc1)C1COc2ccccc2O1 (stereo not given),inactive: 6.61%,–
Cc1cccc(N2CCN(S(=O)(=O)c3ccc4c(c3)OCCO4)CC2)c1C,inactive: 13.1%,–
COC(=O)c1ccc(NC(=O)C(=O)N2CCN(C(=S)Nc3ccccc3OC)CC2)cc1,inactive: -3.98%,–
CC(C)C(C(=O)NCc1ccco1)N(Cc1ccco1)C(=O)CNS(=O)(=O)c1ccc(F)cc1 (stereo not given),inactive: 14.7%,–
CC1CC1C(=O)Nc1nc(-c2cccs2)c(-c2cccs2)s1 (stereo not given),–,active: 11.2 µM
COc1ccc(C2CCCN2C(=S)Nc2cccc(C)c2C)cc1OC (stereo not given),inactive: 13%,–
CCC(CC)C(=O)N(C)c1c(C)nc2c(OCCC3CCCCC3)cccn12,inactive: 14.9%,–
CC(=O)c1cccc(N(CC(=O)NC2CCCCC2)C(=O)CCC(=O)Nc2nc(C)cs2)c1,inactive: -7.67%,–
CC(C)(C)c1ccc(CCC(CC(=O)O)CC(=O)O)cc1,inactive: 24.6%,–
Cc1nc2ccc(F)cc2cc1C(=O)Nc1cccc(Cl)c1C,inactive: 0.867%,–
CC(C)Cc1c(O)nc(SCC(=O)N2CCCCCC2)[nH]c1=O,inactive: 8.91%,–
CN1CCCN(C(=O)CC2(CC(=O)O)CCCC2)CC1,inactive: -12.2%,–
CN1CCOC(=O)/C1=N/Nc1cc(Cl)ccc1Cl,inactive: 13.2%,–
Cc1cccc(-n2c(SCc3ccc([N+](=O)[O-])cc3)nnc2-c2c[nH]c3ccccc23)c1,inactive: -1.51%,–
Cc1cc(C)c2nc(Cl)c(Cl)nc2c1,inactive: 5.72%,–
CC(=O)NC(Nc1nc2c(s1)CCCC2)(C(F)(F)F)C(F)(F)F,inactive: -8.56%,–
O=C(COC(=O)Cn1c(C(F)(F)F)nc2ccccc21)Nc1ccc2c(c1)OCCO2,inactive: 0.167%,–
O=C(Nc1ccccc1Cl)c1ccc(COc2ccc3c(c2)CCC3)cc1,inactive: 11.9%,–
O=C(NCc1ccc2c(c1)OCO2)c1cccnc1,inactive: 23.4%,–
